# Experimental data from PubChem BioAssay AID504832 (National Center for Advancing Translational Sciences (NCATS), 2011).
# The campaign covered roughly 310,000 compounds. About 18,000 (5.8%) were called active. The inconclusive results got no clear call from the source; some entries with a clear call stand among them for comparison. Calls follow the shape of the dose curve; as a rule, active = well fitted inhibition curve with a large enough effect; inconclusive = small, poorly fitted or top-dose-only effect, or another doubt; inactive = no such curve, though single readings can be large or run the other way. Potencies of inconclusive entries are left out as doubtful fits.
# Assay: Primary qHTS for delayed death inhibitors of the malarial parasite plastid, 48 hour incubation
# Details: P. falciparum luciferase growth in erythrocytes; series mostly up to 28.7 µM; activity change, negative = inhibition: at the top concentration
# Summary of the method: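 Firefly luciferase activity from engineered P. falciparum reports growth; inhibitors lower the luminescent signal. Cultures contained 2% hematocrit erythrocytes at 0.1% final parasitemia.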
# % is scaled to controls: 0 for no effect and ±100 for the full control effect; potency is read from the fitted curve at half-maximal effect; tags tell the direction and shape of the fitted curve.
SMILES,Potency,"activity change, negative = inhibition"
CCOc1ccc(CCNC(=O)c2cccc(S(=O)(=O)N3CCCCC3)c2)cc1OCC,active: 14.7 µM,–
N/C(=N\OC(=O)C(c1ccccc1)c1ccccc1)c1ccncc1,active: 2.94 µM,–
CCOC(=O)C1CCN(Cc2cc(C(C)(C)C)c(O)c(C(C)(C)C)c2)CC1,"inconclusive [inhibitor, single point]",–
COc1ccc(S(=O)(=O)Nc2ccc(-c3ccc4nnc(C)n4n3)cc2)c(OC)c1,"inconclusive [inhibitor, single point]",–
COc1cccc(OC)c1-c1nn2c(-c3cc(-c4ccccc4)n[nH]3)nnc2s1,active: 2.08 µM,–
CC(C)Cn1c(N)c(C(=O)CSc2nnc(-c3ccco3)n2C)c(=O)n(C)c1=O,active: 5.22 µM,–
COc1cc2c(cc1OC)CN(C(=O)CSc1nnc3scc(-c4ccccc4)n13)CC2,"inconclusive [inhibitor, partial curve]",–
CC(=O)N(CCC(Cc1ccccc1)c1ccc2c(c1)OCO2)Cc1ccc(Cl)cc1 (centres undefined),active: 9.28 µM,–
COc1cc(/C=N/Nc2ccccn2)ccc1O,–,inactive: 90.2%
O=C(Cn1c(=O)n(Cc2ccco2)c(=O)c2c3c(sc21)CCCCC3)Nc1ccccc1,"inconclusive [inhibitor, single point]",–
Cc1ccc2oc(=O)c(/C=C(\O)c3sc(C)nc3C)nc2c1,"inconclusive [inhibitor, single point]",–
CCC(=O)N1CCc2cc(S(=O)(=O)NC(C(=O)N3CCN(c4ccc(F)cc4)CC3)C(C)C)ccc21 (centres undefined),"inconclusive [inhibitor, single point]",–
Cn1c(=O)c2c(nc(NC3CCCCC3)n2CC(O)COc2ccccc2)n(C)c1=O (centres undefined),active: 10.4 µM,–
CCCC(=O)c1cc2c(cc1NC(=O)c1cccs1)OCCO2,–,inactive: 19.6%
O=C(/C=C/Nc1ccc(F)cc1F)c1cccs1,–,inactive: 64.7%
C#CCOCCOCCOCCNc1nc(N2CCN(C(=O)[C@H]([C@@H](C)CC)n3cc([C@@H](N)CO)nn3)CC2)nc(N2CCN(C(=O)[C@H](Cc3ccc(O)cc3)n3cc([C@@H](N)CC(C)C)nn3)CC2)n1,"inconclusive [inhibitor, single point]",–
Cc1cccc(OCc2nnc(SCc3cc(=O)n4cc(Br)ccc4n3)o2)c1,"inconclusive [inhibitor, single point]",–
CC1CN(Cc2ccccc2)c2ccccc2NC1=S (centres undefined),"inconclusive [inhibitor, single point]",–
COc1ccccc1C(CNC(=O)C(C)Oc1ccc(Br)cc1)N1CCCC1 (centres undefined),"inconclusive [inhibitor, partial curve, poor fit]",–
CCOC(=O)c1ccc(N2C(=O)CC(C)(CC)CC2=O)cc1,"inconclusive [inhibitor, full curve]",–
COc1ccc2cc(CCC(C)=O)ccc2c1,–,inactive: 55.2% [at 12.8 µM]
CCCCN(CC)C(=O)c1ccc(Cl)c(Cl)c1,–,inactive: -5.2%

SMILES,Potency,"activity change, negative = inhibition"
O=C(CCc1c[nH]c2ccccc12)N[C@@H](Cc1c[nH]c2ccc(O)cc12)C(=O)O,active: 3.7 µM,–
CCOC(=O)c1ccc(NC(=O)NCCc2ccccc2OC)cc1,"inconclusive [inhibitor, single point]",–
CC(Oc1ccccc1)C(=O)N=C1SC2CS(=O)(=O)CC2N1Cc1ccc(F)cc1 (centres undefined),"inconclusive [inhibitor, single point]",–
Cn1c(=S)[nH]c2c(c1=O)C(C)(C)Cc1ccccc1-2,–,inactive: 47.8%
Cc1cc(C)n(CC(=O)NC2CCCCC2C)c(=O)c1C#N (centres undefined),"inconclusive [inhibitor, single point]",–
CC(NC(=S)Nc1c(Br)cccc1OC(F)F)C(C)(C)C (centres undefined),"inconclusive [inhibitor, single point]",–
Cn1nc(C(=O)N2CCN(C(c3ccccc3)c3ccccc3)CC2)c2ccccc2c1=O,active: 4.65 µM,–
COc1ccc(/C=N/NC(=O)c2ccoc2C)cc1COc1ccc(Cl)cc1,"inconclusive [inhibitor, single point]",–
COc1ccc(NC(=O)C(CC(C)C)NC(=O)C2CCC(C)CC2)cc1 (centres undefined),"inconclusive [inhibitor, single point]",–
CC(C)(C)OC(=O)NCc1ccc(CNC(=O)c2nc[nH]c2C(=O)N2CCc3ccccc3C2)cc1,"inconclusive [inhibitor, partial curve, poor fit]",–
Cc1cccc(C2(c3cccc(C)c3)CC2C(=O)NCC2CCCO2)c1 (centres undefined),–,inactive: -2.98%
CCN(CC)CCCNC(=O)c1ccc(OCC(=O)Nc2ccccc2C(F)(F)F)c(OC)c1,"inconclusive [inhibitor, partial curve, poor fit]",–
COc1ccc(OC)c(NC(=O)CCN2CCN(c3ccccc3OC)CC2)c1,"inconclusive [inhibitor, full curve, poor fit]",–
O=C(O)c1cc(C(F)(F)F)nc2ccccc12,–,inactive: 9.81%
CC1(C)CC(CC(=O)NNc2nc(-c3ccccc3)cs2)C(=O)O1 (centres undefined),–,inactive: -4.47%
Clc1ccc(CO/N=C2\CCCc3nonc32)cc1,–,inactive: 5.72%
CCOC(=O)C1CCN(C(=O)c2oc3ccc(S(=O)(=O)N4CCCCCC4)cc3c2C)CC1,active: 11.7 µM,–
Cc1onc(-c2ccccc2Cl)c1C(=O)OCC(=O)c1c(N)n(C)c(=O)n(C)c1=O,"inconclusive [inhibitor, single point]",–
Cc1cc(C)cc(C(=O)N2CC(C)SC2=Nc2cccc(S(=O)(=O)N(C)C)c2)c1 (centres undefined),active: 13.1 µM,–
CCN(C(=O)CSc1nnc(-c2ccco2)n1CC)c1c(N)n(Cc2ccccc2)c(=O)[nH]c1=O,"inconclusive [inhibitor, single point]",–
Cn1nccc1C(=O)N1CCc2c([nH]c3ccccc23)C1c1ccc(F)cc1 (centres undefined),"inconclusive [inhibitor, full curve, poor fit]",–
OC1(c2nc3ccccc3[nH]2)CCCCC1,"inconclusive [inhibitor, single point]",–
